In PubChem BioAssay AID206 (DTP/NCI, 2004):
Results filed as inconclusive are left out. Some entries of the source have several records that differ or are many. This is not the full list of results. The source may hold further records. Values that stand side by side are repeats (runs, samples, wells, individuals or studies). Additions like (4×) say how often a value occurs here.

System: nude mice, HT29 intrarenal xenograft, tumor weight T/C
Experiment: NCI In Vivo Anticancer Drug Screen. Data for tumor model HT29;CX-1 Human Adenocarcinoma (MER+) (intrarenal inoculation) in NU/NU Swiss (nude) mice
Conditions: endpoint: mean tumor weight change, higher = larger tumour
How it was run: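 Compounds were given to mice carrying transplantable tumors; a vehicle-dosed group served as control. The endpoint measured in each group was compared as a T/C quotient.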

[1] = dose: 200.0 mg/kg/injection, schedule: Q04DX004 (sc), vehicle: saline with Tween-80
[2] = dose: 400.0 mg/kg/injection, schedule: Q04DX004 (sc), vehicle: saline with Tween-80
[3] = dose: 50.0 mg/kg/injection, schedule: Q04DX004 (sc), vehicle: Klucel (hydroxypropylcellulose) (HPC)
[4] = dose: 100.0 mg/kg/injection, schedule: Q04DX004 (sc), vehicle: Klucel (hydroxypropylcellulose) (HPC)
[5] = dose: 16.0 mg/kg/injection, schedule: Q01DX010 (sc), vehicle: saline

CO[C@H](C(=O)[C@@H](O)[C@@H](C)O)[C@@H]1Cc2cc3cc(OC4CC(OC5CC(O)C(O)C(C)O5)C(O)C(C)O4)c(C)c(O)c3c(O)c2C(=O)[C@H]1OC1CC(OC2CC(OC3CC(C)(O)C(O)C(C)O3)C(O)C(C)O2)C(O)C(C)O1 (some centres undefined)
T/C (dose: 0.25 mg/kg/injection, schedule: Q01DX010 (sc), vehicle: saline): 63 % of control, 82 % of control, 111 % of control
T/C (dose: 0.5 mg/kg/injection, schedule: Q01DX010 (sc), vehicle: saline): 13 % of control, 55 % of control, 68 % of control
T/C (dose: 0.75 mg/kg/injection, schedule: Q04DX004 (sc), vehicle: saline): 85 % of control and 122 % of control
T/C (dose: 1.0 mg/kg/injection, schedule: Q01DX010 (sc), vehicle: saline): -15 % of control, 37 % of control, 87 % of control
T/C (dose: 1.5 mg/kg/injection, schedule: Q04DX004 (sc), vehicle: saline): 39 % of control and 66 % of control
T/C (dose: 3.0 mg/kg/injection, schedule: Q04DX004 (sc), vehicle: saline): 8 % of control and 58 % of control

O=C(O)C(CSC(c1ccccc1)(c1ccccc1)c1ccccc1)N=Cc1cccs1 (centres undefined)
T/C (dose: 100.0 mg/kg/injection, schedule: Q04DX004 (sc), vehicle: suspension in saline): 11 % of control and 104 % of control
T/C (dose: 400.0 mg/kg/injection, schedule: Q04DX004 (sc), vehicle: suspension in saline): 40 % of control and 78 % of control

O=C(N/N=C\c1cc(Br)cc(Br)c1O)N/N=C/c1cc(Br)cc(Br)c1O
T/C (dose: 100.0 mg/kg/injection, schedule: Q01DX010 (sc), vehicle: saline with Tween-80): 73 % of control and 106 % of control

COC(=O)[C@@]12OC[C@]34[C@H]([C@@H](O)[C@@H]1O)[C@@]1(C)CC(=O)C(O)=C(C)[C@@H]1C[C@H]3OC(=O)[C@H](OC(=O)/C=C(\C)C(C)C)[C@@H]24
T/C (dose: 0.5 mg/kg/injection, schedule: Q04DX004 (sc), vehicle: saline + alcohol): 89 % of control and 119 % of control

C[C@]12CCC(=O)C=C1CC[C@@H]1[C@@H]2[C@@H](O)C[C@@]2(C)[C@H]1CC[C@]2(O)C(=O)CO
T/C (dose: 150.0 mg/kg/injection, schedule: Q04DX004 (sc), vehicle: Klucel (hydroxypropylcellulose) (HPC)): 28 % of control, 49 % of control, 84 % of control
T/C (dose: 300.0 mg/kg/injection, schedule: Q04DX004 (sc), vehicle: Klucel (hydroxypropylcellulose) (HPC)): 29 % of control and 68 % of control

COc1cc(NCc2ccc3nc(N)nc(N)c3c2C)cc(OC)c1OC
T/C (dose: 1.25 mg/kg/injection, schedule: Q01DX010 (sc), vehicle: sodium bicarbonate): 35 % of control, 122 % of control, 157 % of control
T/C (dose: 2.5 mg/kg/injection, schedule: Q01DX010 (sc), vehicle: sodium bicarbonate): 72 % of control, 85 % of control, 160 % of control
T/C (dose: 5.0 mg/kg/injection, schedule: Q01DX010 (sc), vehicle: sodium bicarbonate): 74 % of control, 80 % of control, 177 % of control

CN(C)C1C(=O)C(C(=O)NP(=O)(NCCCO)N(CCCl)CCCl)=C(O)C2(O)C(=O)C3=C(O)c4c(O)cccc4C(C)(O)C3CC12 (centres undefined)
T/C (dose: 150.0 mg/kg/injection, schedule: Q04DX004 (sc), vehicle: saline with Tween-80): 51 % of control, 67 % of control, 87 % of control

CC1OC(=O)C(C(C)C)NC(=O)C(C(C)C)OC(=O)C(C(C)C)NC(=O)C(C)OC(=O)C(C(C)C)NC(=O)C(C(C)C)OC(=O)C(C(C)C)NC(=O)C(C)OC(=O)C(C(C)C)NC(=O)C(C(C)C)OC(=O)C(C(C)C)NC1=O (centres undefined)
T/C (dose: 10.0 mg/kg/injection, schedule: Q01DX010 (sc), vehicle: saline with Tween-80): 9 % of control and 57 % of control
T/C (dose: 20.0 mg/kg/injection, schedule: Q01DX010 (sc), vehicle: saline with Tween-80): 23 % of control and 77 % of control
T/C (dose: 40.0 mg/kg/injection, schedule: Q01DX010 (sc), vehicle: saline with Tween-80): -24 % of control, 51 % of control, 58 % of control

O=C(O)C1Cc2nc[nH]c2CN1CO (centres undefined)
T/C [1]: 48 % of control and 247 % of control
T/C [2]: 34 % of control and 156 % of control

COC1=C(NC(C)=O)C(=O)c2nc(-c3nc(C(=O)O)c(C)c(-c4ccc(OC)c(OC)c4O)c3N)ccc2C1=O
T/C [3]: 50 % of control, 73 % of control, 90 % of control
T/C [4]: 16 % of control, 75 % of control, 91 % of control
T/C (dose: 200.0 mg/kg/injection, schedule: Q04DX004 (sc), vehicle: Klucel (hydroxypropylcellulose) (HPC)): 16 % of control, 41 % of control, 96 % of control

CCN(CC)CCNc1ccc(C)c2sc3ccc(O)cc3c(=O)c12
T/C (dose: 300.0 mg/kg/injection, schedule: Q04DX004 (sc), vehicle: saline with Tween-80): 70 % of control and 110 % of control

Cc1c(N)nc([C@H](CC(N)=O)NC[C@H](N)C(N)=O)nc1C(=O)N[C@H](C(=O)N[C@H](C)[C@@H](O)[C@H](C)C(=O)N[C@H](C(=O)NCCc1nc(-c2nc(C(=O)NCCC[S+](C)C)cs2)cs1)[C@@H](C)O)C(OC1OC(CO)C(O)C(O)C1OC1OC(CO)C(O)C(OC(N)=O)C1O)c1cnc[nH]1 (some centres undefined)
T/C [5]: 19 % of control and 91 % of control
T/C (dose: 32.0 mg/kg/injection, schedule: Q01DX010 (sc), vehicle: saline): 17 % of control and 91 % of control

O=C(O)C1(C(=O)O)CCC1.[NH2-].[NH2-].[Pt+2]
T/C (dose: 12.5 mg/kg/injection, schedule: Q01DX010 (sc), vehicle: dextrose): 39 % of control and 97 % of control

COC1C(O)C(C)OC(OC2C(Oc3cccc4c(O)c5c(=O)oc6ccc(C)c7c(=O)oc(c34)c5c67)OC(C)C(O)C2O)C1O (centres undefined)
T/C (dose: 800.0 mg/kg/injection, schedule: Q01DX010 (sc), vehicle: Klucel (hydroxypropylcellulose) (HPC)): 17 % of control and 53 % of control

COc1ccc(S(=O)(=O)N/N=C/C(=O)O)cc1
T/C [1]: 64 % of control, 88 % of control, 103 % of control
T/C [2]: 22 % of control and 63 % of control

COC(=O)Nc1cccc(-c2nc3ccc(NC(=O)OC)cc3c(=O)n2-c2ccccc2)c1
T/C (dose: 50.0 mg/kg/injection, schedule: Q01DX010 (sc), vehicle: Klucel (hydroxypropylcellulose) (HPC)): 49 % of control, 104 % of control, 158 % of control
T/C (dose: 100.0 mg/kg/injection, schedule: Q01DX010 (sc), vehicle: Klucel (hydroxypropylcellulose) (HPC)): -1 % of control and 92 % of control
T/C (dose: 200.0 mg/kg/injection, schedule: Q01DX010 (sc), vehicle: Klucel (hydroxypropylcellulose) (HPC)): 17 % of control and 55 % of control

C/C=C(\C)c1cc(=O)c2c(C)cc3c(c2o1)C(=O)c1c(O)c(C2CC(C)(N(C)C)C(OC(C)=O)C(C)O2)cc(C2CC(N(C)C)C(O)C(C)O2)c1C3=O (centres undefined)
T/C (dose: 10.0 mg/kg/injection, schedule: Q04DX004 (sc), vehicle: saline): 39 % of control and 100 % of control

CSC1SCC2C(=O)N(C)C(C(C)C)C(=O)OCC(NC(=O)c3cnc4ccccc4n3)C(=O)NC(C)C(=O)N(C)C1C(=O)N(C)C(C(C)C)C(=O)OCC(NC(=O)c1cnc3ccccc3n1)C(=O)NC(C)C(=O)N2C (centres undefined)
T/C (dose: 60.0 micrograms/kg/injection, schedule: Q01DX010 (sc), vehicle: suspension in saline): 52 % of control and 101 % of control
T/C (dose: 120.0 micrograms/kg/injection, schedule: Q01DX010 (sc), vehicle: suspension in saline): 54 % of control and 112 % of control
T/C (dose: 240.0 micrograms/kg/injection, schedule: Q01DX010 (sc), vehicle: suspension in saline): 39 % of control and 67 % of control

Nc1nc(-c2cccc3ccccc23)cc2ccccc12
T/C (dose: 800.0 mg/kg/injection, schedule: Q04DX004 (sc), vehicle: saline with Tween-80): 32 % of control and 68 % of control

Oc1ccccc1C=NCCC[N-]CCCN=Cc1ccccc1O.[Co]
T/C (dose: 50.0 mg/kg/injection, schedule: Q01DX010 (sc), vehicle: suspension in saline): 47 % of control and 77 % of control

O=NN(CCCl)C(=O)NCCCl
T/C [5]: 52 % of control and 121 % of control

COc1cc2cc(c1Cl)N(C)C(=O)CC(OC(=O)CC(C)C)C1(C)OC1C(C)C1CC(O)(NC(=O)O1)C(OC)/C=C/C=C(C)C2 (centres undefined)
T/C (dose: 62.5 micrograms/kg/injection, schedule: Q04DX004 (sc), vehicle: saline + alcohol): 58 % of control, 90 % of control, 103 % of control
T/C (dose: 250.0 micrograms/kg/injection, schedule: Q04DX004 (sc), vehicle: saline + alcohol): 14 % of control and 117 % of control (2×)

C1CC[N-]CC1.[Cl][Pt+2][Cl].[NH-]C1CC1
T/C (dose: 12.5 mg/kg/injection, schedule: Q04DX004 (sc), vehicle: water): 80 % of control and 153 % of control
T/C (dose: 25.0 mg/kg/injection, schedule: Q04DX004 (sc), vehicle: water): 42 % of control and 84 % of control

CN(C(=S)S(=O)(=O)C12CC3CC(CC(C3)C1)C2)c1ccccc1
T/C [3]: 16 % of control and 46 % of control
T/C [4]: 109 % of control and 176 % of control

CC(C)CCCCCCCCCCCCC(=O)NCC(=O)NC1C(C)OC(Nc2ncnc3nc[nH]c23)C(O)C1O (centres undefined)
T/C (dose: 4.0 mg/kg/injection, schedule: Q01DX010 (sc), vehicle: distilled water + Tween-80): -51 % of control and 18 % of control
T/C (dose: 4.0 mg/kg/injection, schedule: Q01DX010 (sc), vehicle: saline with Tween-80): -52 % of control and -12 % of control
